The values that follow come from patent publication US20170342169A1 (published 2017).

The chains are these.
T1: mouse 4-1BB (mouse, UniProt P20334 24-187)
T1 construct: also called murine 4-1BB; mu4-1BB
T1 sequence (looked up): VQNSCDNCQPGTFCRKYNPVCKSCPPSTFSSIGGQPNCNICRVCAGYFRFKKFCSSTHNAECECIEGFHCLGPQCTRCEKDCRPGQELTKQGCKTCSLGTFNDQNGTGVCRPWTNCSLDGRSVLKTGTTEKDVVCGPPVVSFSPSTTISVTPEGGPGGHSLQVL

B1: hu107MSLN-4 (bispecific antibody)
chain: SYELTQPPSVSVSPGQTASITCSGDKLGDKYASWYQQKPGQSPVLVIYQDNRRPSGIPERFSGSNSGNTATLTISGTQAMDEADYYCQAWDSDTYVFGTGTKVTVLGQGGGGSGGGGSGGGGSGGGGSGGGGSGGGGSEVQLVQSGAEVKKPGASVKVSCKASGDTFKRYYVHWVRQAPGQGLEWMGIINPSGVSTTYAQKFQGRVTMTRDTSTSTVYMELSSLRSEDTAVYYCAEVRGSGFNYFGMDVWGQGTLVTVSS[human IgG1 Fc with C220S V273E (EU numbers) not written out]GGGGSGGGSGGGSGGGGSDVVLTQSPLSLPVTLGQPASISCRSSQSLLDSDGNTYLYWFQQRPGQSPRRLIYLVSNLGSGVPDRFSGSGSGTDFTLKISRVEAEDVGVYYCMQPTHAPYTFGQGTKLEIKRGGGGSGGGGSGGGGSGGGGSGGGGSGGGGSEVQLVQSGAEVKKPGSSVKVSCKASDYTFNDYWVSWVRQAPGQGLEWIGEIYPNSGATNFNGKFRGRATLTVDNSASTAYMELSSLRSEDTAVYYCTREYTRDWFAYWGQGTLVTVSS
notes: see m102
B2: hu107MSLN-3 (bispecific antibody)
chain: SYELTQPPSVSVSPGQTASITCSGDKLGDKYASWYQQKPGQSPVLVIYQDNRRPSGIPERFSGSNSGNTATLTISGTQAMDEADYYCQAWDSDTYVFGTGTKVTVLGQGGGGSGGGGSGGGGSGGGGSGGGGSGGGGSEVQLVQSGAEVKKPGASVKVSCKASGDTFKRYYVHWVRQAPGQGLEWMGIINPSGVSTTYAQKFQGRVTMTRDTSTSTVYMELSSLRSEDTAVYYCAEVRGSGFNYFGMDVWGQGTLVTVSS[human IgG1 Fc with C220S V273E (EU numbers) not written out]GGGGSGGGSGGGSGGGGSEVQLVQSGAEVKKPGSSVKVSCKASDYTFNDYWVSWVRQAPGQGLEWIGEIYPNSGATNFNGKFRGRATLTVDNSASTAYMELSSLRSEDTAVYYCTREYTRDWFAYWGQGTLVTVSSGGGGSGGGGSGGGGSGGGGSGGGGSGGGGSDVVLTQSPLSLPVTLGQPASISCRSSQSLLDSDGNTYLYWFQQRPGQSPRRLIYLVSNLGSGVPDRFSGSGSGTDFTLKISRVEAEDVGVYYCMQPTHAPYTFGQGTKLEIKR
notes: see m102
B3: hu107MSLN-2 (bispecific antibody)
chain: DVVLTQSPLSLPVTLGQPASISCRSSQSLLDSDGNTYLYWFQQRPGQSPRRLIYLVSNLGSGVPDRFSGSGSGTDFTLKISRVEAEDVGVYYCMQPTHAPYTFGQGTKLEIKRGGGGSGGGGSGGGGSGGGGSGGGGSGGGGSEVQLVQSGAEVKKPGSSVKVSCKASDYTFNDYWVSWVRQAPGQGLEWIGEIYPNSGATNFNGKFRGRATLTVDNSASTAYMELSSLRSEDTAVYYCTREYTRDWFAYWGQGTLVTVSS[human IgG1 Fc with C220S V273E (EU numbers) not written out]GGGGSGGGSGGGSGGGGSSYELTQPPSVSVSPGQTASITCSGDKLGDKYASWYQQKPGQSPVLVIYQDNRRPSGIPERFSGSNSGNTATLTISGTQAMDEADYYCQAWDSDTYVFGTGTKVTVLGQGGGGSGGGGSGGGGSGGGGSGGGGSGGGGSEVQLVQSGAEVKKPGASVKVSCKASGDTFKRYYVHWVRQAPGQGLEWMGIINPSGVSTTYAQKFQGRVTMTRDTSTSTVYMELSSLRSEDTAVYYCAEVRGSGFNYFGMDVWGQGTLVTVSS
notes: see m102
B4: hu106MSLN-3 (bispecific antibody)
chain: SYELTQPPSVSVSPGQTASITCSGDKLGDKYASWYQQKPGQSPVLVIYQDNRRPSGIPERFSGSNSGNTATLTISGTQAMDEADYYCQAWDSDTYVFGTGTKVTVLGQGGGGSGGGGSGGGGSGGGGSGGGGSGGGGSEVQLVQSGAEVKKPGASVKVSCKASGDTFKRYYVHWVRQAPGQGLEWMGIINPSGVSTTYAQKFQGRVTMTRDTSTSTVYMELSSLRSEDTAVYYCAEVRGSGFNYFGMDVWGQGTLVTVSS[human IgG1 Fc with C220S V273E (EU numbers) not written out]GGGGSGGGSGGGSGGGGSEVQLVQSGAEVKKPGSSVKVSCKASGYTFTSYYIYWVRQAPGQGLEWIGNIWPGNGGTFYGEKFMGRATFTADTSTSTAYMELSSLRSEDTAVYYCARRPDYSGDDYFDYWGQGTLVTVSSGGGGSGGGGSGGGGSGGGGSGGGGSGGGGSNVMLTQPHSVSESPGKTVTISCKLNSGNIGSYYVHWYQQRPGSSPTTMIYRDDKRPDGVPDRFSGSIDSSSNSASLTISGLKTEDEADYYCHSYDSTITPVFGGGTKLTVLGQ
notes: see m102
B5: hu107MSLN-1 (bispecific antibody)
chain: EVQLVQSGAEVKKPGSSVKVSCKASDYTFNDYWVSWVRQAPGQGLEWIGEIYPNSGATNFNGKFRGRATLTVDNSASTAYMELSSLRSEDTAVYYCTREYTRDWFAYWGQGTLVTVSSGGGGSGGGGSGGGGSGGGGSGGGGSGGGGSDVVLTQSPLSLPVTLGQPASISCRSSQSLLDSDGNTYLYWFQQRPGQSPRRLIYLVSNLGSGVPDRFSGSGSGTDFTLKISRVEAEDVGVYYCMQPTHAPYTFGQGTKLEIKR[human IgG1 Fc with C220S V273E (EU numbers) not written out]GGGGSGGGSGGGSGGGGSSYELTQPPSVSVSPGQTASITCSGDKLGDKYASWYQQKPGQSPVLVIYQDNRRPSGIPERFSGSNSGNTATLTISGTQAMDEADYYCQAWDSDTYVFGTGTKVTVLGQGGGGSGGGGSGGGGSGGGGSGGGGSGGGGSEVQLVQSGAEVKKPGASVKVSCKASGDTFKRYYVHWVRQAPGQGLEWMGIINPSGVSTTYAQKFQGRVTMTRDTSTSTVYMELSSLRSEDTAVYYCAEVRGSGFNYFGMDVWGQGTLVTVSS
notes: see m102
B6: hu106MSLN-2 (bispecific antibody)
chain: NVMLTQPHSVSESPGKTVTISCKLNSGNIGSYYVHWYQQRPGSSPTTMIYRDDKRPDGVPDRFSGSIDSSSNSASLTISGLKTEDEADYYCHSYDSTITPVFGGGTKLTVLGQGGGGSGGGGSGGGGSGGGGSGGGGSGGGGSEVQLVQSGAEVKKPGSSVKVSCKASGYTFTSYYIYWVRQAPGQGLEWIGNIWPGNGGTFYGEKFMGRATFTADTSTSTAYMELSSLRSEDTAVYYCARRPDYSGDDYFDYWGQGTLVTVSS[human IgG1 Fc with C220S V273E (EU numbers) not written out]GGGGSGGGSGGGSGGGGSSYELTQPPSVSVSPGQTASITCSGDKLGDKYASWYQQKPGQSPVLVIYQDNRRPSGIPERFSGSNSGNTATLTISGTQAMDEADYYCQAWDSDTYVFGTGTKVTVLGQGGGGSGGGGSGGGGSGGGGSGGGGSGGGGSEVQLVQSGAEVKKPGASVKVSCKASGDTFKRYYVHWVRQAPGQGLEWMGIINPSGVSTTYAQKFQGRVTMTRDTSTSTVYMELSSLRSEDTAVYYCAEVRGSGFNYFGMDVWGQGTLVTVSS
notes: see m102
B7: hu106MSLN-1 (bispecific antibody)
chain: EVQLVQSGAEVKKPGSSVKVSCKASGYTFTSYYIYWVRQAPGQGLEWIGNIWPGNGGTFYGEKFMGRATFTADTSTSTAYMELSSLRSEDTAVYYCARRPDYSGDDYFDYWGQGTLVTVSSGGGGSGGGGSGGGGSGGGGSGGGGSGGGGSNVMLTQPHSVSESPGKTVTISCKLNSGNIGSYYVHWYQQRPGSSPTTMIYRDDKRPDGVPDRFSGSIDSSSNSASLTISGLKTEDEADYYCHSYDSTITPVFGGGTKLTVLGQ[human IgG1 Fc with C220S V273E (EU numbers) not written out]GGGGSGGGSGGGSGGGGSSYELTQPPSVSVSPGQTASITCSGDKLGDKYASWYQQKPGQSPVLVIYQDNRRPSGIPERFSGSNSGNTATLTISGTQAMDEADYYCQAWDSDTYVFGTGTKVTVLGQGGGGSGGGGSGGGGSGGGGSGGGGSGGGGSEVQLVQSGAEVKKPGASVKVSCKASGDTFKRYYVHWVRQAPGQGLEWMGIINPSGVSTTYAQKFQGRVTMTRDTSTSTVYMELSSLRSEDTAVYYCAEVRGSGFNYFGMDVWGQGTLVTVSS
B8: hu106MSLN-4 (bispecific antibody)
chain: SYELTQPPSVSVSPGQTASITCSGDKLGDKYASWYQQKPGQSPVLVIYQDNRRPSGIPERFSGSNSGNTATLTISGTQAMDEADYYCQAWDSDTYVFGTGTKVTVLGQGGGGSGGGGSGGGGSGGGGSGGGGSGGGGSEVQLVQSGAEVKKPGASVKVSCKASGDTFKRYYVHWVRQAPGQGLEWMGIINPSGVSTTYAQKFQGRVTMTRDTSTSTVYMELSSLRSEDTAVYYCAEVRGSGFNYFGMDVWGQGTLVTVSS[human IgG1 Fc with C220S V273E (EU numbers) not written out]GGGGSGGGSGGGSGGGGSNVMLTQPHSVSESPGKTVTISCKLNSGNIGSYYVHWYQQRPGSSPTTMIYRDDKRPDGVPDRFSGSIDSSSNSASLTISGLKTEDEADYYCHSYDSTITPVFGGGTKLTVLGQGGGGSGGGGSGGGGSGGGGSGGGGSGGGGSEVQLVQSGAEVKKPGSSVKVSCKASGYTFTSYYIYWVRQAPGQGLEWIGNIWPGNGGTFYGEKFMGRATFTADTSTSTAYMELSSLRSEDTAVYYCARRPDYSGDDYFDYWGQGTLVTVSS
notes: see m102

The first experiment addresses T2, human mesothelin (human, UniProt Q13421 296-580, limits assumed).
T2 construct: also called Human MSLN
T2 sequence (Q13421 other isoform, or with tags, fused parts or gaps limits assumed): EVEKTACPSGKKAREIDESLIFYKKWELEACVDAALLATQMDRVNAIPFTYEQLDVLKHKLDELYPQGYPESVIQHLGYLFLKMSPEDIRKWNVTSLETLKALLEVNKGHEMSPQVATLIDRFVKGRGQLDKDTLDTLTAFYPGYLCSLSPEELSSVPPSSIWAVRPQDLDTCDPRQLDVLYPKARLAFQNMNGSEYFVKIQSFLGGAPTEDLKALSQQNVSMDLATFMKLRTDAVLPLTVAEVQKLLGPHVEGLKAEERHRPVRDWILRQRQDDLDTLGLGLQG
As to the kind of experiment: SPR.
Turning to B1, the Kd came to 1.4 nM.
Take B2: the affinity, expressed as Kd, was 1.5 nM.
With B3, the dissociation constant Kd was found to be 3.1 nM.
In the case of B4, the Kd amounted to 1.4 nM.
Molecule B5 returned a Kd of 3.6 nM.
Take B6: the Kd was found to be 4.5 nM.
Consider B7, for which the Kd was 4.7 nM.
Molecule B8 came in with an equilibrium dissociation constant (Kd) of 1.4 nM. This Kd is about 3.4-fold lower than that of the molecule before.

Another experiment deals with T3, human 4-1BB (human, UniProt Q07011 24-186).
T3 construct: As used in SPR; also called hu4-1BB
As to the kind of experiment: SPR. On the technique in general: In SPR one partner is held on a chip, and binding of the other changes the refractive index at the surface.
The molecule B1 showed a Kd of 6.1 nM.
With B2, binding was put at a Kd of 7.1 nM.
Turning to B3, the dissociation constant (Kd) was 3.6 nM.
B4 displayed a Kd of 2300 nM.
The molecule B5 had a Kd of 1.4 nM.
With B6, binding was put at a Kd of 670 nM.
The molecule B7 returned a Kd of 800 nM.
Molecule B8 came in with a Kd of 1400 nM.

Another experiment deals with T1, mouse 4-1BB. As to the kind of experiment: SPR.
As for B1, binding was characterised by a dissociation constant (Kd) of 52 nM.
Same read-out and setting: next, B2: 49 nM.
B3 registered a dissociation constant Kd of 44 nM.
Molecule B4 registered a Kd of 110 nM. This Kd is about 2.5-fold higher than that of the molecule before.
B5: binding was characterised by a dissociation constant (Kd) of 29 nM.
On the same count and under the same terms, the figure for B6 is 74 nM; for B7 it is 71 nM; for B8 it is 140 nM.

Broadly, the Kd is a measure of binding affinity in units of concentration.
